Assay results: a compilation of properties of binary mixtures (doi:10.1021/acs.jced.1c00924)
The densities may have been worked out from excess volumes.

Test: xn = mol fraction of the nth substance listed
Conditions: 100 kPa

Compound `CCOP(=O)([O-])OCC.CC[n+]1ccn(C)c1` + CCO has a mass density (293.15 K, x1 = 0.0201) of 819 kg/m3, a mass density (293.15 K, x1 = 0.0397) of 845 kg/m3 and a mass density (293.15 K, x1 = 0.0802) of 889 kg/m3. For the same compound, the mass density (293.15 K, x1 = 0.1002) was 907 kg/m3, the mass density (293.15 K, x1 = 0.12) was 923 kg/m3 and the mass density (293.15 K, x1 = 0.16) was 952 kg/m3. It also gave a mass density (293.15 K, x1 = 0.1992) of 975 kg/m3, a mass density (293.15 K, x1 = 0.2987) of 1021 kg/m3 and a mass density (293.15 K, x1 = 0.4007) of 1055 kg/m3. The mass density (293.15 K, x1 = 0.5007) was 1080 kg/m3, the mass density (293.15 K, x1 = 0.5993) was 1099 kg/m3 and the mass density (293.15 K, x1 = 0.8) was 1128 kg/m3. For the same compound, the mass density (298.15 K, x1 = 0.0397) was 841 kg/m3, the mass density (298.15 K, x1 = 0.0802) was 885 kg/m3 and the mass density (298.15 K, x1 = 0.1002) was 903 kg/m3. For the same compound, the mass density (298.15 K, x1 = 0.12) was 919 kg/m3, the mass density (298.15 K, x1 = 0.16) was 948 kg/m3 and the mass density (298.15 K, x1 = 0.1992) was 971 kg/m3. For the same compound, the mass density (298.15 K, x1 = 0.2987) was 1017 kg/m3, the mass density (298.15 K, x1 = 0.5007) was 1076 kg/m3 and the mass density (298.15 K, x1 = 0.5993) was 1096 kg/m3. It also gave a mass density (298.15 K, x1 = 0.8) of 1125 kg/m3, a mass density (298.15 K, x1 = 0.8985) of 1135 kg/m3 and a mass density (298.15 K, x1 = 1) of 1145 kg/m3. For the same compound, the mass density (303.15 K, x1 = 0.0397) was 837 kg/m3, the mass density (303.15 K, x1 = 0.0802) was 881 kg/m3 and the mass density (303.15 K, x1 = 0.1002) was 899 kg/m3. The mass density (303.15 K, x1 = 0.12) was 916 kg/m3, the mass density (303.15 K, x1 = 0.16) was 944 kg/m3 and the mass density (303.15 K, x1 = 0.1992) was 968 kg/m3. For the same compound, the mass density (303.15 K, x1 = 0.2987) was 1014 kg/m3, the mass density (303.15 K, x1 = 0.5007) was 1073 kg/m3 and the mass density (303.15 K, x1 = 0.5993) was 1092 kg/m3. For the same compound, the mass density (303.15 K, x1 = 0.7003) was 1108 kg/m3, the mass density (303.15 K, x1 = 1) was 1141 kg/m3 and the mass density (308.15 K, x1 = 0.0397) was 833 kg/m3. It also gave a mass density (308.15 K, x1 = 0.0802) of 877 kg/m3, a mass density (308.15 K, x1 = 0.1002) of 895 kg/m3 and a mass density (308.15 K, x1 = 0.12) of 912 kg/m3. It also gave a mass density (308.15 K, x1 = 0.16) of 940 kg/m3, a mass density (308.15 K, x1 = 0.1992) of 964 kg/m3 and a mass density (308.15 K, x1 = 0.2987) of 1010 kg/m3. It also gave a mass density (308.15 K, x1 = 0.4007) of 1044 kg/m3, a mass density (308.15 K, x1 = 0.5007) of 1069 kg/m3 and a mass density (308.15 K, x1 = 0.5993) of 1089 kg/m3. The mass density (308.15 K, x1 = 0.8) was 1118 kg/m3, the mass density (308.15 K, x1 = 0.8985) was 1129 kg/m3 and the mass density (308.15 K, x1 = 1) was 1138 kg/m3. For the same compound, the mass density (313.15 K, x1 = 0.0397) was 829 kg/m3, the mass density (313.15 K, x1 = 0.0802) was 873 kg/m3 and the mass density (313.15 K, x1 = 0.1002) was 891 kg/m3. It also gave a mass density (313.15 K, x1 = 0.12) of 908 kg/m3, a mass density (313.15 K, x1 = 0.16) of 937 kg/m3 and a mass density (313.15 K, x1 = 0.1992) of 960 kg/m3. For the same compound, the mass density (313.15 K, x1 = 0.2987) was 1007 kg/m3, the mass density (313.15 K, x1 = 0.4007) was 1040 kg/m3 and the mass density (313.15 K, x1 = 0.5007) was 1066 kg/m3. The mass density (313.15 K, x1 = 0.5993) was 1085 kg/m3, the mass density (313.15 K, x1 = 0.7003) was 1101 kg/m3 and the mass density (313.15 K, x1 = 0.8) was 1114 kg/m3. The mass density (313.15 K, x1 = 0.8985) was 1125 kg/m3, the mass density (318.15 K, x1 = 0.0201) was 798 kg/m3 and the mass density (318.15 K, x1 = 0.0802) was 869 kg/m3. For the same compound, the mass density (318.15 K, x1 = 0.1002) was 887 kg/m3, the mass density (318.15 K, x1 = 0.12) was 904 kg/m3 and the mass density (318.15 K, x1 = 0.1992) was 956 kg/m3. It also gave a mass density (318.15 K, x1 = 0.2987) of 1003 kg/m3, a mass density (318.15 K, x1 = 0.4007) of 1037 kg/m3 and a mass density (318.15 K, x1 = 0.5007) of 1062 kg/m3. For the same compound, the mass density (318.15 K, x1 = 0.5993) was 1082 kg/m3, the mass density (318.15 K, x1 = 0.7003) was 1098 kg/m3 and the mass density (318.15 K, x1 = 0.8) was 1111 kg/m3. For the same compound, the mass density (318.15 K, x1 = 1) was 1131 kg/m3, the mass density (323.15 K, x1 = 0.0397) was 820 kg/m3 and the mass density (323.15 K, x1 = 0.1002) was 883 kg/m3. It also gave a mass density (323.15 K, x1 = 0.12) of 900 kg/m3, a mass density (323.15 K, x1 = 0.16) of 929 kg/m3 and a mass density (323.15 K, x1 = 0.1992) of 953 kg/m3. It also gave a mass density (323.15 K, x1 = 0.2987) of 999 kg/m3, a mass density (323.15 K, x1 = 0.4007) of 1033 kg/m3 and a mass density (323.15 K, x1 = 0.5007) of 1059 kg/m3. The mass density (323.15 K, x1 = 0.5993) was 1078 kg/m3, the mass density (323.15 K, x1 = 0.8) was 1107 kg/m3 and the mass density (323.15 K, x1 = 0.8985) was 1118 kg/m3. The mass density (323.15 K, x1 = 1) was 1128 kg/m3, the mass density (328.15 K, x1 = 0.0201) was 790 kg/m3 and the mass density (328.15 K, x1 = 0.0397) was 816 kg/m3. The mass density (328.15 K, x1 = 0.0802) was 861 kg/m3, the mass density (328.15 K, x1 = 0.12) was 896 kg/m3 and the mass density (328.15 K, x1 = 0.16) was 925 kg/m3. For the same compound, the mass density (328.15 K, x1 = 0.2987) was 996 kg/m3, the mass density (328.15 K, x1 = 0.4007) was 1030 kg/m3 and the mass density (328.15 K, x1 = 0.5007) was 1055 kg/m3. The mass density (328.15 K, x1 = 0.7003) was 1091 kg/m3, the mass density (328.15 K, x1 = 0.8) was 1104 kg/m3 and the mass density (328.15 K, x1 = 0.8985) was 1115 kg/m3. It also gave a mass density (328.15 K, x1 = 1) of 1124 kg/m3, a mass density (333.15 K, x1 = 0.0201) of 785 kg/m3 and a mass density (333.15 K, x1 = 0.0802) of 857 kg/m3. It also gave a mass density (333.15 K, x1 = 0.1002) of 875 kg/m3, a mass density (333.15 K, x1 = 0.12) of 892 kg/m3 and a mass density (333.15 K, x1 = 0.16) of 921 kg/m3. It also gave a mass density (333.15 K, x1 = 0.1992) of 945 kg/m3, a mass density (333.15 K, x1 = 0.2987) of 992 kg/m3 and a mass density (333.15 K, x1 = 0.5007) of 1052 kg/m3. It also gave a mass density (333.15 K, x1 = 0.5993) of 1071 kg/m3, a mass density (333.15 K, x1 = 0.7003) of 1088 kg/m3 and a mass density (333.15 K, x1 = 0.8) of 1101 kg/m3. It also gave a mass density (333.15 K, x1 = 0.8985) of 1112 kg/m3, a mass density (333.15 K, x1 = 1) of 1121 kg/m3 and a mass density (338.15 K, x1 = 0.0201) of 781 kg/m3. For the same compound, the mass density (338.15 K, x1 = 0.0397) was 807 kg/m3, the mass density (338.15 K, x1 = 0.1002) was 871 kg/m3 and the mass density (338.15 K, x1 = 0.16) was 917 kg/m3. For the same compound, the mass density (338.15 K, x1 = 0.1992) was 941 kg/m3, the mass density (338.15 K, x1 = 0.2987) was 988 kg/m3 and the mass density (338.15 K, x1 = 0.4007) was 1023 kg/m3. The mass density (338.15 K, x1 = 0.5007) was 1048 kg/m3, the mass density (338.15 K, x1 = 0.5993) was 1068 kg/m3 and the mass density (338.15 K, x1 = 0.8) was 1097 kg/m3. The mass density (338.15 K, x1 = 0.8985) was 1108 kg/m3 and the mass density (338.15 K, x1 = 1) was 1117 kg/m3.
